Self-cleavage data for 167 variants are collected here from the RNAGym collection of RNA variant scans (doi:10.7554/elife.90254).

The chains are these.
B1: LINE1-full (parent)
chain: UACGUAGGUGGUUUUCCCCUGAUAGUGCUAAGGGGGCCUGGAAGUUUGGACUGGGCAGAGCUCAACACAGCGUGGCAAAGUGGCUGUGGCUAGACUGCCUCUCUGGAUUCCUCGUCACUCAGCAGGGCAUCUCUGAGAGAAAUGCC

The source gives no read counts; variants with many changes may rest on few reads.

The variants in this data set derive from B1. The experiment in a line: self-cleavage, relative activity (ratio to wild type); higher = more cleavage; in vitro, sequencing; the parent is a self-cleaving ribozyme.
As to U26C A64G U104C G114A, the self-cleavage turned out to be 0.08.
Next, U26A G48A A129U: 1.24.
Next, U29A A31G U39A: 0.51; U26A U96C U115A: 0.09.
Next, G27A A50G C51U C61G A79G A94G U108A A124C A138G: 0.
As to U26C G49U A117G, the self-cleavage was determined as 0.52.
Next, C28U A50G A79G U85C: 0; U29C G40U A92U: 0.36; U26C C111U U132C: 1.58.
Turning to G27A G82A C111A C146G, the self-cleavage amounted to 1.06.
Next, U29C U39C U134C: 0.95; U26C A77U U109A U132A A138G: 0.5.
Next, U26A G40A U47A A94G U130C: 0.13; U26C A94U A107G: 0.54.
As for U26C G33A A57G G74A A121U, the figure is 0.97.
Consider U29C G35A U45G A65G, for which the self-cleavage worked out at 0.1.
As for G25A U104A A107G U115C C123U, the figure is 0.97; as for U26C U52C A69U U109C, 0.39.
Next, U26C A94G A138U: 0.5; U26A C51A A117U A124C: 1.51.
As for U29C U46C A107G, the figure is 1.36; as for U29C U73C A92G U134C, 0; as for U26A U46C U104G, 0.33.
In the case of U26C C56U A69U A79U A124G U132A, the self-cleavage turned out to be 0.
As for U26A G58C U62C U119C A136G, the figure is 0.33.
For the variant U26C A59U A65C A77G G114U, the self-cleavage is 0.05.
Turning to C28U U62C U132A, the self-cleavage was 0.06.
Next, U29C A69G A142G: 0.
Next, U26A U96C C110U: 0.11.
U26A A77G A141G: the self-cleavage worked out at 1.84.
Turning to G25A U104C A129C, the self-cleavage stood at 1.18.
As for U29C A77G U119A, the figure is 1.64.
As for U26C A77U A121G, the figure is 1.5; as for U29A A59U C128U, 0.64; as for U29C G55A A57G A65U A138G, 0.08.
Take G25U A124G A141G: the self-cleavage came out at 1.27.
As for U26A A92G C118U, the figure is 0.24; as for U29A A30G U52A U87C A142G, 0.56; as for U26C G74A A77G U109C, 1.21.
For G27A A64G A117G A141G, the self-cleavage is 0.13.
In the case of U26A U96A U143C, the self-cleavage came out at 0.11.
Next, G27A U39C A77G U87A: 0.03.
As for U26C C63G U104A, the figure is 0.13; as for U26G U39A U52C G80U U132C, 0; as for U26C C37U A59G U100C, 0.15.
Next, G25U U134C A140G: 1.81; G25C A64U A69G U85C: 0; U26C A43G C66U U96C: 0.13.
U26C U45C A50G: the self-cleavage was found to be 1.02.
As for U26A C71A U109C A124G, the self-cleavage came out at 0.09.
Next, U26A U39C U45C U47C: 0.
As for U26A U73C A77U A94G, the figure is 0.53.
As for U29C C71U U119C, the figure is 1.88.
Turning to U26A U39C A94G G125A A140G, the self-cleavage is 0.17.
As for U29A A67G A121U C146U, the figure is 0.79; as for U29C G53A A136G, 1.46.
Next, U29C A43G C71A U96C A138U: 0.12; U26A U45C U100C C145U: 0.89; G27A A92G U102C A136U: 0.
For U29C A30G U85A G89A U132C, the self-cleavage is 0.04.
As for C28G U112A A136U, the figure is 1.51; as for U26G G44U G93U U115C U119C, 0.08; as for U26A A57G U73C U130C, 0.84.
Next, U26C A78G U109C U130C: 1.15; U26G U47A A136U A140G: 1.71; U29C A50G U132C A142G: 0.
As for U29C A77G U81C U108A, the figure is 1.31; as for U26A U119C U143C C145A, 1.27; as for U26C A42U U62A, 0.16.
Take G27A U46C A78G: the self-cleavage was found to be 1.53.
As for G25A U73A U87A G127U, the figure is 0.03; as for U26A C38U U119C A142G, 1; as for C28U U46C A67U A107G U108C, 0.18.
Next, U26C A31U C101U: 1.06.
As for U26A U102C A121G, the figure is 0; as for G27A U47C C68U U87C A92G, 0.05.
Turning to G25U U115A A138G, the self-cleavage turned out to be 1.31.
For G27A U52A G72U, the self-cleavage amounted to 0.77.
As for C28A G54C U100C, the self-cleavage was found to be 0.07.
Consider G27A A50G A138G, for which the self-cleavage was found to be 0.37.
With U29A A64G U100C, the self-cleavage came out at 0.52.
Consider U26C U45C A79G G127C, for which the self-cleavage was determined as 1.15.
Next, U26G A31G A140G: 1.08; U26C A64U U85A U115C A136U: 0.09; C28G A121G U134C: 2.53.
For the variant U26A U52G A138G A142G, the self-cleavage amounted to 0.5.
Next, U26C G97A C111A: 0.08; U29C G40A U134C: 1.1; U26C G54A A107U: 0.7.
As for U29C A79U A107G U130C, the figure is 2.09; as for U29C A42G A50G, 0; as for U26C A50G A79G, 0.
As for U26C A59G U62C U130C, the figure is 0; as for U29C A136U A140G, 1.31; as for U29C C101U A124U, 0.93.
Consider U26C U52C A69G U115A, for which the self-cleavage was 0.
Next, U29C U46A A138U: 0.53.
On to U26C A107U A124U A141G, for which the self-cleavage was found to be 1.99.
As for C28U A57G U108C, the figure is 1.84; as for U29C A92U A129G A136G, 1.02.
As for C28G A43G G44A A50U, the self-cleavage came to 0.84.
U29A A92G U108A U112A A136G: the self-cleavage is 0.23.
As for U29A U119C A138G A141G, the figure is 1.47; as for U26C U62C C90U, 0.06.
Next, U26A U130G A141G: 0.54; U26C A69G A79G: 0.38.
As for U26G A79G U143C, the figure is 0.52; as for U26C A30G G127A A129G U130C, 1.31; as for G25C A42G A65G, 0.29.
For G25C A65G G70A A79U A117G, the self-cleavage worked out at 0.02.
Turning to U26C U46C A136U A141G, the self-cleavage amounted to 1.02.
Next, U29C A65G A77U A124U: 0; G25U A64G U104C: 0.2.
As for U29C U46C A65C, the figure is 0.24; as for U26C U29A A77G, 1.93.
Next, U26C A77G U134G: 2.19.
U29C A59G A79G: the self-cleavage is 0.4.
Next, U26A A67G A117U: 0.54.
As for U26C A64U A94G U112C, the figure is 0.08; as for U26C C37U U52A U73A U102C A142G, 1.73; as for U26A A42G U119A, 1.1.
Next, U29C G58U U81G: 0.07; C28U U47A A94U U115C: 0.19.
For U26C A31G A57U A69U, the self-cleavage came to 0.
As for U26A C28U U134C A138G, the figure is 0; as for U26G A43U U87A, 0.15; as for U26C U39C U62C U91C, 1.15.
As for U29C G70A U73C A121U, the figure is 0.63; as for U26A U47A A59G G60A A69U A117G A138G, 0.07; as for G25U U52G A59U, 0.71.
As for U29C G60A U132C, the figure is 0.38; as for U26A G82A U102C G114A U134C, 0.79.
On to U26C C28U U47A A77U U115C U143C, for which the self-cleavage was 1.29.
Next, U26A G54A A94G A117C: 0.12.
G25C C71U C110A A129G: the self-cleavage turned out to be 0.84.
For the variant U26C A67G A140U, the self-cleavage came to 0.15.
Next, U26A U108C U115C: 1.07; U26C U52C G126A A129G: 1.43.
As for U26C U96A U108C, the figure is 0.06; as for U26C A59G G82A, 0.08.
Next, U26A U39A U132C A142G: 1.24; U26C G32U A43G G139A C146A: 1.38.
As for U26A U112C A124G, the self-cleavage was 0.64.
Next, U29C U47G U73A A78U: 1.95; U26A G33U U39A: 1.45; U26A C66U U73A A78G U119A A124G A129G: 0.03.
Next, C28G A69U A79G: 0.07; U26C U46C U134C A138G: 1.84; U29A U46A U62C G125C: 0.01.
C28A A42G U47C U143C: the self-cleavage came to 1.13.
U26A A77U A140G: the self-cleavage is 0.38.
Next, G27U U45G U115C: 0.8; U26C U96A A138U: 0.04; U26C G74C U85C U143C: 0.56.
As to U26A G70A U134G, the self-cleavage amounted to 0.09.
As for U29C A30G A67U G122A, the figure is 0.1; as for U29C C63U A67U A92G A107U, 0.06.
Next, U29C A42G C90U: 0.05; U26C A57G A77G U112A: 0.89; U26A C38U U73C: 1.72.
Next, U26G G40A A59G G72A C111U U115C: 0.05; U26C G86A U115C: 0.06.
U26G U47A C116U: the self-cleavage came out at 1.01.
As to U26C U96A A124U, the self-cleavage was determined as 0.04.
As for U29C A50G C68U G86A U119A, the self-cleavage was 0.16.
As for U26A U52C U73C A141G, the figure is 1.23; as for U29A U115C U143A, 0.64.
